# Assay results: PubChem BioAssay AID686979 (National Center for Advancing Translational Sciences (NCATS), 2013)
# Out of some 420,000 compounds screened, about 50,000 (12%) were called active. Inconclusive means that the source gave no clear call. Such entries were picked first, then a sample of the others. Calls come from the whole dose curve; as a rule, active = well fitted inhibition curve with a large enough effect; inconclusive = small, poorly fitted or top-dose-only effect; inactive = flat fitted curve, though single readings scatter. No potency is given beside an inconclusive call; the fits are too rough.
# Experiment: qHTS for Inhibitors of human tyrosyl-DNA phosphodiesterase 1 (TDP1): qHTS in cells in presence of CPT; note: nearly all actives have a fitted effect of over 55% in size
# Conditions: chicken DT40 Tdp1-/-;hTDP1 cells + 20 nM CPT, ATP luminescence, 48 h; activity change, negative = growth inhibition: at 46.2 µM (top of the series) unless noted
# Outline: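 Chicken DT40 Tdp1-/- cells complemented with human TDP1, 400 cells/well, exposed to compounds plus 20 nM camptothecin for at least 48 h at 37 C; viability read as ATP content by CellTiter-Glo luminescence.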
# % is set by controls: 0 for no effect and ±100 for the full control effect; potency is the fitted concentration of half-maximal effect; tags give direction and shape of the fitted curve.
SMILES,Potency,"activity change, negative = growth inhibition"
CCOC(=O)C1=C(COC(=O)c2ccc([N+](=O)[O-])o2)NC(=O)NC1C (configuration not stated),"inconclusive [inhibitor, single point]",–
O=C(CSCCO)Nc1cccc([N+](=O)[O-])c1,"inconclusive [inhibitor, partial curve]",–
Cc1cc(C(=O)O)c(C)n1-c1ccccc1,inactive,–
CCOc1cc(NS(=O)(=O)c2ccc(NC(C)=O)cc2)c(OCC)cc1NC(=O)c1cccs1,"inconclusive [inhibitor, partial curve]",–
c1ccc(CNn2nnnc2-c2ccccc2)cc1,inactive,–
Cc1ccc([N+](=O)[O-])cc1NC(=O)c1ccc(C(C)(C)C)cc1,"inconclusive [inhibitor, single point]",–
Cc1cc(NC(=O)Cc2csc(-c3ccccc3)n2)ccc1Br,"inconclusive [inhibitor, single point]",–
CCOc1ccc(OCC)c(NC(=O)CN2CCN(C(=O)c3ccco3)CC2)c1,"inconclusive [inhibitor, single point]",–
COc1cc2nc(Cl)nc(N3CCOCC3)c2cc1OC,"inconclusive [inhibitor, single point]",–
O=C(CC1SC(=NCC2CCCO2)NC1=O)Nc1cccc2ccccc12 (configuration not stated),inactive,–
CN(Cc1ccccc1)C(=S)Nc1ccc(OC(F)F)cc1,inactive,–
Cc1[nH]c2ccccc2c1C(O)CN1CCC2(CC1)OCCO2 (configuration not stated),"inconclusive [inhibitor, single point]",–
CCOC(=O)c1cccc(NC(=O)c2cc3c(Cl)nc4ccc(C)cc4c3s2)c1,"inconclusive [inhibitor, single point]",–
COc1cccc(-n2c(N)c(-c3nc4ccccc4[nH]3)sc2=S)c1,inactive,–
COc1ccc(OC)c2c(C)cc(N3CCCN(C)CC3)nc12,"inconclusive [inhibitor, partial curve]",–
CC(C)(CCc1ccccn1)C(=O)C(CCc1ccccn1)CCc1ccccn1,"inconclusive [inhibitor, single point]",–
C=CCOc1ccc(C=Nc2ccc(C)c(Cl)c2)c(O)c1,inactive,–
CCOC(=O)c1c(NC(=O)Nc2ccc(Cl)cc2)sc(C)c1C,"inconclusive [inhibitor, single point]",–
COc1cc(OC)c2ccc(=O)oc2c1C(CCN1CCCC(C)C1)c1ccc2c(c1)OCO2 (configuration not stated),active: 10.3 µM,–
Cc1ccc2c(c1)c(C)c(C)n2CC(O)CN1CCCCC1C (configuration not stated),"inconclusive [inhibitor, single point]",–
CC(C)CC(=O)OC1C(N2CCOCC2)c2c(ccc(/C=C/C(=O)N3CCOCC3)c2O)OC1(C)C (configuration not stated),"inconclusive [inhibitor, single point]",–
COc1ccc(S(=O)(=O)NCc2ccncc2)cc1NC(=O)c1ccccc1F,"inconclusive [inhibitor, partial curve]",–
COc1ccc(C(=O)c2[nH]c(N)c(C(=O)NCCc3c[nH]c4ccccc34)c2-c2ccc(C(F)(F)F)cc2)cc1,active: 16.4 µM,–

SMILES,Potency,"activity change, negative = growth inhibition"
Cc1ccc(C(=O)NCCCN2CCN(CCCNC(=O)c3ccc(C)cc3)CC2)cc1,inactive,–
COc1cc(OC)c(OC)cc1CN1CCc2nc(N3CCN(c4ncccn4)CC3)ncc2C1,active: 16.4 µM,–
c1ccc(CNc2nc(NCc3ccccc3)c3ccccc3n2)cc1,active: 5.8 µM,–
Fc1ccc(-c2cc(-c3nc(-c4cccc(Cl)c4)no3)[nH]n2)cc1,"inconclusive [inhibitor, single point]",–
Cc1cccn2c(=O)c(/C=C(\C#N)C(N)=O)c(N3CCN(Cc4ccc5c(c4)OCO5)CC3)nc12,–,inconclusive: -32.7% [inhibitor]
Cc1cccc(NC(=O)C2CCN(C(=O)[C@@H]3Cc4ccccc4CN3)CC2)c1,inactive,–
Cc1ccc(NS(=O)(=O)c2ccc(NC(=O)C3CCCO3)cc2)cc1 (configuration not stated),"inconclusive [inhibitor, partial curve]",–
OCC[C@@H]1C[C@@H](O)[C@H](O)[C@]2(CCCO2)O1,inactive,–
O=C(Nc1ccc(Cl)cc1)c1ccc2c(=O)n3c(nc2c1)CCCCC3,"inconclusive [inhibitor, single point]",–
CC1(C(=O)NS(=O)(=O)c2ccccc2Cl)CCN1C(=O)CCc1ccccc1 (configuration not stated),inactive,–
COC(=O)/C(=C\c1cc(OC)c(OC)c(OC)c1)c1nc2ccccc2[nH]1,"inconclusive [inhibitor, single point]",–
N/C(Cc1ccc(Cl)cc1)=N\OC(=O)c1ccc2ccccc2c1,"inconclusive [inhibitor, single point]",–
COc1ccc(C)cc1NC(=O)C(Sc1nnc(Nc2cc(C)ccc2OC)s1)c1ccccc1 (configuration not stated),"inconclusive [inhibitor, single point]",–
Cc1ccc(S(=O)(=O)N2CC3(O)CN(C(=O)OC(C)C)N(C(=O)OC(C)C)CC3(OC(=O)NCc3ccco3)C2)cc1 (configuration not stated),"inconclusive [inhibitor, single point]",–
COc1ccc(CNC(=O)C2(C)Cc3c(-c4ccc(N(C)C)cc4)ccnc3O2)cc1OC (configuration not stated),"inconclusive [inhibitor, single point]",–
O=C(NNC(=S)NC(=O)C12CC3CC(CC(C3)C1)C2)c1ccncc1,"inconclusive [inhibitor, single point]",–
COc1ccc(N2CCN(c3ncnc4nc[nH]c34)CC2)cc1,"inconclusive [inhibitor, partial curve]",–
O=C(NCc1cccc(Cl)c1)c1cccc(S(=O)(=O)N2CCCCC2)c1,"inconclusive [inhibitor, single point]",–
Cc1cccc(OCCSc2nc3ccccc3n2CCC(=O)O)c1,"inconclusive [inhibitor, single point]",–
C/C(CC(=O)Nc1ccc2ccccc2c1)=N\NC(=O)c1cnccn1,"inconclusive [inhibitor, single point]",–
Cc1cccc2cc(CN(Cc3ccccc3)C(=O)N(C)C)c(=O)[nH]c12,"inconclusive [inhibitor, partial curve]",–
Cc1ccc(C)c(NC(=O)C(C)n2c(=O)cc(C(F)(F)F)c3c(C)nn(C)c32)c1 (configuration not stated),inactive,–
CNC(=S)N1CCN(c2c(F)cc3c(=O)c(C(=O)O)cn(C4CC4)c3c2OC)CC1C (configuration not stated),"inconclusive [inhibitor, single point]",–

SMILES,Potency,"activity change, negative = growth inhibition"
CCN1CCN(C(=O)c2ccc3c(c2)N(Cc2cccc(Cl)c2)C(=O)c2ccccc2S3(=O)=O)CC1,"inconclusive [inhibitor, single point]",–
COc1ccccc1CNC(=O)CSc1ncc2c(n1)-c1ccccc1N(Cc1ccc(C)cc1)S2(=O)=O,"inconclusive [inhibitor, partial curve]",–
Cc1ccc2c([N+](=O)[O-])cccc2n1,inactive,–
O=[N+]([O-])c1ccc2c(c1)-c1ccccc1C2=NO,active: 18.4 µM,–
O=C(Cc1cccc2ccccc12)NNC(=O)Nc1cccc(Cl)c1,inactive,–
CC(C)CNC(=O)COc1ncnc2sccc12,inactive,–
O=C(Cn1c(-c2cccs2)cc2cc(Cl)ccc21)N1CCCCC1,"inconclusive [inhibitor, single point]",–
O=S(=O)(c1ccccc1Cl)N1CCCC1c1nc(-c2ccc(Cl)cc2)no1 (configuration not stated),"inconclusive [inhibitor, single point]",–
CN(Cc1cccnc1)Cc1c(C(=O)N2CCc3ccccc3C2)nc2ccc(Cl)cn12,"inconclusive [inhibitor, partial curve]",–
COc1ccc(Cl)cc1C(=O)NCC(c1ccc(N(C)C)cc1)N1CCCC1 (configuration not stated),"inconclusive [inhibitor, partial curve]",–
Cc1cccc(CNC(=O)c2c3n(c(C)cc2=O)-c2ccccc2SC(c2sccc2C)C3)n1 (configuration not stated),–,inactive: -4.81% [at 9.04 µM]
CC(C)C[C@H](NC(=O)OC(C)(C)C)c1nnc(SCC(=O)Nc2ccc(Br)cc2)o1,"inconclusive [inhibitor, single point]",–
COc1ccc(C(=O)C2CCCN(C(=O)c3cccnc3OC)C2)c(C)c1 (configuration not stated),"inconclusive [inhibitor, single point]",–
Cc1cc(C)c(NC(=S)N(CCN2CCCCC2)Cc2ccco2)c(C)c1,"inconclusive [inhibitor, single point]",–
c1ccc(-c2cc3cc4c(cc3cn2)OCO4)cc1,"inconclusive [inhibitor, single point]",–
c1ccc(-c2nnc(-c3ccccn3)c(-c3ccccn3)n2)nc1,"inconclusive [inhibitor, single point]",–
CC(C)c1cccc(NC(=O)COC(=O)c2ccccc2OCc2cccc(Br)c2)c1,"inconclusive [inhibitor, single point]",–
CCOC(=O)C1(Cc2ccccc2C)CCCN(S(=O)(=O)CC)C1 (configuration not stated),"inconclusive [inhibitor, single point]",–
CCN(C(=O)c1ccc(N2CC3CC(C2)c2cccc(=O)n2C3)c(NC(=O)c2ccncc2)c1)c1cccc(C)c1 (configuration not stated),inactive,–
CSc1ccc(CN(C)CC(=O)Nc2ccccc2Br)cc1,active: 23.1 µM,–
COc1ccc(NC(=O)CN2CCN(C3c4ccccc4-c4ccccc43)CC2)c(OC)c1,"inconclusive [inhibitor, single point]",–
